Numbering of substitutions follows the chain as printed; changes in the protein carry UniProt numbers. Some of the results follow.

Binding signal data for 20 molecules are collected here from paper PMC9911399, “Two distinct binding modes provide the RNA-binding protein RbFox with extraordinary sequence specificity”.

B1: GGACAAC (DNA:RNA)
RNA: GGGAGACCGGAAUUCAGAUUGUCCGGACAACUUAAAUCCCGUCGUAGCCACCA
DNA 1: CAATCTGAATTCCGGTCTCCC
DNA 2: TGGTGGCTACGACGGGATT
B2: CUACCAG (DNA:RNA)
RNA: B1 RNA with G25C, G26U, A29C, C31G
DNA 1: CAATCTGAATTCCGGTCTCCC
DNA 2: TGGTGGCTACGACGGGATT
B3: UUUAAGC (DNA:RNA)
RNA: B1 RNA with G25U, G26U, A27U, C28A, A30G
DNA 1: CAATCTGAATTCCGGTCTCCC
DNA 2: TGGTGGCTACGACGGGATT
B4: CUGUGGC (DNA:RNA)
RNA: B1 RNA with G25C, G26U, A27G, C28U, A29G, A30G
DNA 1: CAATCTGAATTCCGGTCTCCC
DNA 2: TGGTGGCTACGACGGGATT
B5: CGUUAAU (DNA:RNA)
RNA: B1 RNA with G25C, A27U, C28U, C31U
DNA 1: CAATCTGAATTCCGGTCTCCC
DNA 2: TGGTGGCTACGACGGGATT
B6: GUGAUGG (DNA:RNA)
RNA: B1 RNA with G26U, A27G, C28A, A29U, A30G, C31G
DNA 1: CAATCTGAATTCCGGTCTCCC
DNA 2: TGGTGGCTACGACGGGATT
B7: CUGAUGC (DNA:RNA)
RNA: B1 RNA with G25C, G26U, A27G, C28A, A29U, A30G
DNA 1: CAATCTGAATTCCGGTCTCCC
DNA 2: TGGTGGCTACGACGGGATT
B8: CCGUUAA (DNA:RNA)
RNA: B1 RNA with G25C, G26C, A27G, C28U, A29U, C31A
DNA 1: CAATCTGAATTCCGGTCTCCC
DNA 2: TGGTGGCTACGACGGGATT
B9: ACGAAGG (DNA:RNA)
RNA: B1 RNA with G25A, G26C, A27G, C28A, A30G, C31G
DNA 1: CAATCTGAATTCCGGTCTCCC
DNA 2: TGGTGGCTACGACGGGATT
B10: AUCCGUA (DNA:RNA)
RNA: B1 RNA with G25A, G26U, A27C, A29G, A30U, C31A
DNA 1: CAATCTGAATTCCGGTCTCCC
DNA 2: TGGTGGCTACGACGGGATT
B11: CAAUAGC (DNA:RNA)
RNA: B1 RNA with G25C, G26A, C28U, A30G
DNA 1: CAATCTGAATTCCGGTCTCCC
DNA 2: TGGTGGCTACGACGGGATT
B12: CCCCUGG (DNA:RNA)
RNA: B1 RNA with G25C, G26C, A27C, A29U, A30G, C31G
DNA 1: CAATCTGAATTCCGGTCTCCC
DNA 2: TGGTGGCTACGACGGGATT
B13: AUGCGGA (DNA:RNA)
RNA: B1 RNA with G25A, G26U, A27G, A29G, A30G, C31A
DNA 1: CAATCTGAATTCCGGTCTCCC
DNA 2: TGGTGGCTACGACGGGATT
B14: CCACCGG (DNA:RNA)
RNA: B1 RNA with G25C, G26C, A29C, A30G, C31G
DNA 1: CAATCTGAATTCCGGTCTCCC
DNA 2: TGGTGGCTACGACGGGATT
B15: CGAAUAG (DNA:RNA)
RNA: B1 RNA with G25C, C28A, A29U, C31G
DNA 1: CAATCTGAATTCCGGTCTCCC
DNA 2: TGGTGGCTACGACGGGATT
B16: GAUCAAA (DNA:RNA)
RNA: B1 RNA with G26A, A27U, C31A
DNA 1: CAATCTGAATTCCGGTCTCCC
DNA 2: TGGTGGCTACGACGGGATT
B17: GGUUUUA (DNA:RNA)
RNA: B1 RNA with A27U, C28U, A29U, A30U, C31A
DNA 1: CAATCTGAATTCCGGTCTCCC
DNA 2: TGGTGGCTACGACGGGATT
B18: AUGUCUC (DNA:RNA)
RNA: B1 RNA with G25A, G26U, A27G, C28U, A29C, A30U
DNA 1: CAATCTGAATTCCGGTCTCCC
DNA 2: TGGTGGCTACGACGGGATT
B19: CAGGACU (DNA:RNA)
RNA: B1 RNA with G25C, G26A, A27G, C28G, A30C, C31U
DNA 1: CAATCTGAATTCCGGTCTCCC
DNA 2: TGGTGGCTACGACGGGATT
B20: GAUAGUU (DNA:RNA)
RNA: B1 RNA with G26A, A27U, C28A, A29G, A30U, C31U
DNA 1: CAATCTGAATTCCGGTCTCCC
DNA 2: TGGTGGCTACGACGGGATT

The target in this assay is T1, RBFOX1 RRM (Homo sapiens, UniProt Q9NWB1 109-208).
T1 sequence: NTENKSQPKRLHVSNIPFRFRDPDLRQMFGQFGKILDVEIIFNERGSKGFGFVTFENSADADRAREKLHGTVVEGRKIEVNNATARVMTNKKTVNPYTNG
In words: EMSA; HiTS-Eq, 1 nM pool, 10 min; buffer printed only for the single-RNA assays: 10 mM Tris pH 7.5, 150 mM NaCl, 3.4 mM EDTA, 0.001% NP-40, 30 C. To be noted: tags: His6 N-terminal (pET28a); label: 5' 32P. The essentials: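 These values rest on relative association constants, computed from read-count changes of each RNA species versus the control reaction and normalised to the cognate motif. Reads came from free RNA recovered by 8% native PAGE after purified RbFox RRM (wild type or mutant) at increasing concentrations was equilibrated for 10 min in 50 µL with 1 nM of a 5′-radiolabelled pool with 7 randomized nucleotides and DNA-annealed flanks.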
For orientation: Mobility shift assays separate free from complexed probe on a gel.
B1: the binding signal is 0.0157 KA relative to UGCAUGU.
As for B2, the binding signal is 0.00668 KA relative to UGCAUGU.
Take B3: the binding signal was 0.0109 KA relative to UGCAUGU.
The value for B4 was 0.0106 KA relative to UGCAUGU; that for B5 was 0.00397 KA relative to UGCAUGU.
The value for B6 was 0.0149 KA relative to UGCAUGU.
On to B7, for which the binding signal was 0.012 KA relative to UGCAUGU.
The value for B8 was 0.00125 KA relative to UGCAUGU.
As for B9, the figure is 0.0119 KA relative to UGCAUGU; as for B10, 0.00367 KA relative to UGCAUGU.
As for B11, the figure is 0.00204 KA relative to UGCAUGU; as for B12, 0.0109 KA relative to UGCAUGU; as for B13, 0.0106 KA relative to UGCAUGU.
For B14, the binding signal is 0.000243 KA relative to UGCAUGU.
As for B15, the binding signal was 0.00672 KA relative to UGCAUGU.
Regarding B16, the binding signal is 0.00435 KA relative to UGCAUGU.
As to B17, the binding signal was 0.00817 KA relative to UGCAUGU.
For B18, the binding signal was 0.0135 KA relative to UGCAUGU.
As for B19, the figure is 0.00514 KA relative to UGCAUGU.
Turning to B20, the binding signal was 0.0125 KA relative to UGCAUGU.
